Hit rate of the full screen: of about 310,000 compounds, about 2,200 (0.71%) showed an effect of 50% or more. The effect is printed as a negative number. The list shows a part of the results.
target: human ether-à-go-go-related gene (hERG) potassium channel (human, UniProt Q12809); experiment: primary screen, population patch clamp on CHO cells stably expressing hERG
Sequence (Q12809 whole entry, looked up): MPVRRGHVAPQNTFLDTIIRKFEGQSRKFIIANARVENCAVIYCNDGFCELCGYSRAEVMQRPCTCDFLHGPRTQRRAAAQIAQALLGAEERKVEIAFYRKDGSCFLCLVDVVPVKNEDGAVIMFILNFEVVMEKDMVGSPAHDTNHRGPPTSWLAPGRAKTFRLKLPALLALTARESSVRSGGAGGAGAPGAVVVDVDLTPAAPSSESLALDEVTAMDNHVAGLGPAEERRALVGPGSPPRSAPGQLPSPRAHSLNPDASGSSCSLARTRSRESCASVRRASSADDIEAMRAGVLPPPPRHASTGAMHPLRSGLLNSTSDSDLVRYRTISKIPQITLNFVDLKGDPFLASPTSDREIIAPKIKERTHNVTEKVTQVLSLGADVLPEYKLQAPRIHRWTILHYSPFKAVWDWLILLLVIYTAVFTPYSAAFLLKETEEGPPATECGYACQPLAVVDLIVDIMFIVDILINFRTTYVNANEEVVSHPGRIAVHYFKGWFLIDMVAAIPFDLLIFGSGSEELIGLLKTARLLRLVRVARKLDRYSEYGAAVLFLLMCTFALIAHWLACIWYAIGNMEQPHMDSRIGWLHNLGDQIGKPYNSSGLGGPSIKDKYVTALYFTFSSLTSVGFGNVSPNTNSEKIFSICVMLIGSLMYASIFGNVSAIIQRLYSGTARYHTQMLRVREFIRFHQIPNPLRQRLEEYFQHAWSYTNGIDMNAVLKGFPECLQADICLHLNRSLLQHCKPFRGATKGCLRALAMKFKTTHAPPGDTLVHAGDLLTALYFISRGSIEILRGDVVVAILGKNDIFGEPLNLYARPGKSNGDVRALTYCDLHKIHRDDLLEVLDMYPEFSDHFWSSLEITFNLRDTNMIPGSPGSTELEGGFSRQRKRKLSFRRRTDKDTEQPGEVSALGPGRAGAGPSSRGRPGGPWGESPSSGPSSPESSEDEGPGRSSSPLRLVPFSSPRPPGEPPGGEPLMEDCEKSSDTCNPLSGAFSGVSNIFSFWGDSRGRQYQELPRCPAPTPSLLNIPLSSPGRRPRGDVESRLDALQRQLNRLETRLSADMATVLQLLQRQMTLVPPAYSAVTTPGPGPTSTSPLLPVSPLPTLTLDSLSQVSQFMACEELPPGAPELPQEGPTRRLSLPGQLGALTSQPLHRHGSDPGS

| Compound | hERG current change (%, negative = inhibition) at 1uM [%] |
| --- | --- |
| CCn1nnnc1SCC(=O)N1CCCc2ccccc21 | 6.42 |
| NC(=O)NC(Cc1ccccc1)C(=O)N1CCN(S(=O)(=O)c2ccc(Cl)cc2)CC1 (stereo not shown) | 7.12 |
| CCc1ccc(N2C(=O)C3C4C=CC(CC4)C3C2=O)cc1 (stereo not shown) | 13.5 |
| O=S(=O)(c1ccc(C2CCCCC2)cc1)N1CCCC1 | 17.8 |
| Cc1ccc2c(c1)nnn2C1CCN(S(=O)(=O)c2ccc(C(=O)NC3CCCC3)cc2)CC1 | 12.8 |
| COc1ccc(NC(=O)c2ccccc2-c2ccccc2)c(C)c1 | 9.07 |
| CCN(C(=O)Cc1ccc(NC2=NC3CS(=O)(=O)CC3S2)cc1)c1ccccc1 (stereo not shown) | 0.874 |
| COC(=O)c1cc(Br)ccc1-c1ccc(/C=N/n2nnnc2N)o1 | 2.64 |
| Fc1ccccc1CN1CCCCCCC1 | -6.99 |
| O=C(c1ccc(Br)o1)N1CCc2ccccc21 | 6.62 |
| CCC(=Nc1ccccc1)C1=C(O)CCCC1=O | 15.8 |
| N/C(=N\OS(=O)(=O)c1cccc([N+](=O)[O-])c1)c1ccncc1 | 6.19 |
| O=C(O)/C=C\C(=O)Nc1cc(O)ccc1[N+](=O)[O-] | 11.1 |
| Cc1ccc(C(=O)CCC(=O)OCC(=O)NNC(=O)c2ccc([N+](=O)[O-])cc2)cc1 | -7.1 |
| COc1cccc(OCC(=O)NNC(=S)Nc2ccc(Cl)cc2Cl)c1 | 10 |
| O=C(COc1ccc2c(c1)OCO2)Nc1ccc2c(c1)oc1ccccc12 | 14.7 |
| COC(=O)CC1C(=O)NCCN1C(=O)CSc1nc2ccccc2c(=O)n1CC(C)C (stereo not shown) | 11.6 |
| CCN1C(=O)C(CC(=O)Nc2ccc(OC)cc2)N(CCc2ccc(OC)cc2)C1=S (stereo not shown) | 10.9 |
| O=C(NC1CCN(Cc2ccc(Cl)cc2Cl)CC1)c1ccccc1 | -6.37 |
| N#Cc1ccsc1NC(=O)CN1C(=O)NC2(CCCC2)C1=O | 5 |
| Cc1cc(C)c2[nH]c(C(=O)N3CCC(n4nccc4NC(=O)C4CC4)CC3)c(C)c2c1 | -2.86 |
| O=C(O)CC(CC(=O)Nc1ccc2ccccc2n1)c1ccccc1 (stereo not shown) | 9.68 |

| Compound | hERG current change (%, negative = inhibition) at 1uM [%] |
| --- | --- |
| CC(=O)Nc1ccc(S(=O)(=O)Nc2cccc(NC(=O)C(C)(C)C)c2)cc1 | 19.3 |
| Cc1ccc(C(=O)NNC(=O)c2ccc3ccccc3c2O)cc1 | -4.58 |
| CCCNC(=O)C(Cc1ccccc1)NS(=O)(=O)c1ccc2c(c1)c(=O)n(C)c(=O)n2C (stereo not shown) | 3.66 |
| CCC1=[N+](C)CCn2c(C)ccc21.[I-] | 19 |
| CC(C)CC(=O)Nc1c2c(nn1-c1cccc(Cl)c1)CS(=O)(=O)C2 | -12.1 |
| Cc1ccc([N+](=O)[O-])cc1S(=O)(=O)Nc1ccc(OCC(=O)N2CCOCC2)cc1 | -6.23 |
| CCN(CC)CCn1c2c(c(SCC(=O)Nc3ccc(C(C)C)cc3)nc1=O)CCC2 | -16.4 |
| COc1cc(C(Nc2ccc(S(=O)(=O)N3CCC(C)CC3)cc2)C(=O)NCC2CCCO2)cc(OC)c1OC (stereo not shown) | -2.66 |
| CC(C)[C@H](Nc1ccc(C(F)(F)F)cc1[N+](=O)[O-])C(=O)O.[Cl-] | 14.3 |
| COc1ccc(C)cc1NC(=O)C1CCCN(S(=O)(=O)c2ccc3[nH]c(=O)ccc3c2)C1 (stereo not shown) | 4.21 |
| Cc1cccc(-n2ncc3c(N(C)C4CCCCC4)ncnc32)c1 | -10.4 |
| Cc1cnc(C)c(N2CCC(C(=O)NC(C)c3cccs3)CC2)n1 (stereo not shown) | 2.13 |
| CCCCCC(=O)Nc1nnc(CCc2ccccc2)s1 | 8.96 |
| O=C(O)CSc1ncnc2sc3c(c12)CCC3 | 14.6 |
| O=C(Nc1nn[nH]n1)C12CC3CC(CC(C3)C1)C2 | 20.4 |
| COc1ccccc1CC1/C(=N/O)C2CCN1CC2.Cl (stereo not shown) | 7.03 |
| COc1cc(-c2ccc3sc(-c4ccsc4)c(C#CCO)c3c2)cc(OC)c1OC | 18.3 |
| COc1cc(C(=O)O)nc2ccc([N+](=O)[O-])cc12 | 8.09 |
| Nc1ccc2nc(SCc3ccccc3F)sc2c1 | 7.88 |
| Cc1cc(CNCc2c(C(=O)N(C)Cc3ccccc3)nc3ccccn23)nn1C | 10.8 |
| CCOc1cc(C(=S)N2CCCC2)ccc1OCc1ccccc1 | 16 |
